Experimental findings from article PMC4336329 (PLoS ONE, 2015) are described below.

Each structure is given as a SMILES string. Out of some 310,000 compounds screened, about 2,200 (0.71%) showed an effect of 50% or more. The effect is printed as a negative number. Some of the results follow.

Chain of human ether-à-go-go-related gene (hERG) potassium channel (Q12809 whole entry, looked up): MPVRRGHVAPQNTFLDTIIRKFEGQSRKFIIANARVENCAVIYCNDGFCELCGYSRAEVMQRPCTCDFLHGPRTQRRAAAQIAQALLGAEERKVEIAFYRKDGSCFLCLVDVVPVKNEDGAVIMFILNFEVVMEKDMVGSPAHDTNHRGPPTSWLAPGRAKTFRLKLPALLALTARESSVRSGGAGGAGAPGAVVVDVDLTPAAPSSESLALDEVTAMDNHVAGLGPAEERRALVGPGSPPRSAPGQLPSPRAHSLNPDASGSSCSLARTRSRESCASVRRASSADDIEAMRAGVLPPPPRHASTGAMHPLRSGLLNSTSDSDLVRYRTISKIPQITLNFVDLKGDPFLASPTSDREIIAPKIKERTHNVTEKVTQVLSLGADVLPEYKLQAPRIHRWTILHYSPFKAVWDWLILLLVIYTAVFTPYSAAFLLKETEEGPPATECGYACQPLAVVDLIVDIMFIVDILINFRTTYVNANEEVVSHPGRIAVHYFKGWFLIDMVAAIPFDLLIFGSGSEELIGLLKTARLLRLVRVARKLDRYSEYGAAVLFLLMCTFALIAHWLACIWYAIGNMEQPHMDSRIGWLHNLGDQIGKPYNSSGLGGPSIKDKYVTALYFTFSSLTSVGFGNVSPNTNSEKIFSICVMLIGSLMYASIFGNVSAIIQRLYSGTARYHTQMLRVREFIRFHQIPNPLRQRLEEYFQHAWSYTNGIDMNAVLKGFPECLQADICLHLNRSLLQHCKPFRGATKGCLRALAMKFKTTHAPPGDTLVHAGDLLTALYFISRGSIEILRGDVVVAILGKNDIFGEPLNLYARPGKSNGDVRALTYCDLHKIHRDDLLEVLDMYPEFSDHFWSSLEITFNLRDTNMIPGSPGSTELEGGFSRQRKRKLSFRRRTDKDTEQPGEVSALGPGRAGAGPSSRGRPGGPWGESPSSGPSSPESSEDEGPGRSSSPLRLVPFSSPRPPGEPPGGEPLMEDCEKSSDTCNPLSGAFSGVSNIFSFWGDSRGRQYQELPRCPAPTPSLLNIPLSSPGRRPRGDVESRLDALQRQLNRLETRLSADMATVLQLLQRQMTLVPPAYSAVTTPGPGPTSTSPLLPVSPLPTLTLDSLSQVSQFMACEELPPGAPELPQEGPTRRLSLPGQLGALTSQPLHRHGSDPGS

The assay concerns the target human ether-à-go-go-related gene (hERG) potassium channel (human, UniProt Q12809). As to the kind of experiment: primary screen, population patch clamp on CHO cells stably expressing hERG.
As to `Cc1ccc(NC(=O)CN(C)C(=O)Cc2ccc(Cl)c(Cl)c2)cc1`, the “hERG current change (%, negative = inhibition) at 1uM” value came out at 10.9%.
With `O=C(CN1C(=O)COc2ccccc21)NCCN1CCOCC1`, the “hERG current change (%, negative = inhibition) at 1uM” value is recorded as 7.77%.
For `COc1ccc(CN(CCC(c2ccco2)C(C)C)C(C)=O)cc1OC` (stereo not shown) the value was 11.5%.
To `CC(C)Oc1ccc(CNC(=S)Nc2ccccc2)cc1Cl` belongs 13.2%; to `Cc1cc(=O)n(C)c2ccccc12`, 8.74%; to `O=[N+]([O-])c1cc(S(=O)(=O)Nc2ccccc2)ccc1-n1nnc2ccccc21`, 5.08%.
On to `O=C(CSc1nc(-c2ccco2)cc(C(F)(F)F)n1)NN1CCOCC1`, for which the “hERG current change (%, negative = inhibition) at 1uM” value came to 12.6%.
For `C#CCCOC(=O)N1C2=NC(C(=O)OC)=C(C(=O)OC)[C@@H]3N(C)c4ccccc4[C@]23C[C@H]1CO` the value was 10.9%.
As for `CCCCCCCCCCCCS[C@H]1CS(=O)(=O)C[C@@H]1O`, the “hERG current change (%, negative = inhibition) at 1uM” value was 5.76%.
For `CC(C)(C)c1ccccc1OCCOCCN1CCCCCC1.O=C(O)C(=O)O` the value was -3.93%; for `C=CCOC(=O)C1=C[C@@H](c2ccccc2)C[C@@H](OCc2ccc(CO)cc2)O1`, 8.92%; for `Nc1cc(C(=O)OCC(=O)Nc2ccc(N3CCOCC3)cc2)ccc1Cl`, 5.77%.
For `Cc1ccc(CNC(=O)COC(=O)c2cncc(Br)c2)cc1` the value was 14.1%.
As for `COc1ccc(/C=N/NC(=O)CCn2nc(C)cc2C)cc1`, the “hERG current change (%, negative = inhibition) at 1uM” value turned out to be 7.76%.
To `O=C(O)CSc1nc2c(c(=O)[nH]1)CCCC2` belongs 16%.
Consider `CCn1c(C)c(C)c2cc(C(=O)N3CCc4ccccc4C3)ccc21`, for which the “hERG current change (%, negative = inhibition) at 1uM” value is recorded as 7.51%.
To `COCCCNc1oc(-c2cccs2)nc1S(=O)(=O)c1ccc(C)cc1` belongs 2.02%; to `O=C(Nc1ccc([N+](=O)[O-])cc1)c1cc(-c2ccccn2)nc2c(Cl)cccc12`, 13.5%.
Turning to `O=C(COc1ccc2c(c1)oc(=O)c1ccccc12)N[C@@H](Cc1ccccc1)C(=O)O`, the “hERG current change (%, negative = inhibition) at 1uM” value was found to be 12%.
As for `O=C1CCCCC1Sc1ccc(Cl)cc1[N+](=O)[O-]` (stereo not shown), the “hERG current change (%, negative = inhibition) at 1uM” value is reported as 7.69%.
For `COc1ccc(/C(C)=N/OC/C(O)=C(\C#N)c2nc3ccccc3[nH]2)cc1` the value was 16.7%; for `CC(C)(C)c1cc(C(=O)NNC(=O)Nc2ccccc2)n(Cc2ccccc2)n1`, 11%; for `COc1cccc(NC(=O)CNC(=O)c2ccc(C)o2)c1`, 12%.
For `O=C(CCN1C(=O)/C(=C\C=C\c2ccccc2)SC1=S)Nc1cccc(C(=O)O)c1` the value was 11.5%; for `O=C(Nc1cccc(F)c1)/C(=C\c1cccnc1)NC(=O)c1ccco1`, -1.43%.
For `Cc1ccccc1NC(=O)CN(C)S(=O)(=O)c1cccs1` the value was 5.52%; for `O=C(C1=C[C@H](c2ccc3c(c2)OCO3)C[C@H](OCCCCO)O1)N1CCN(Cc2ccccc2)CC1`, -20.5%.
Take `Cc1cc(C)c2nc(Cl)c(C3NC(=O)c4ccccc4N3)cc2c1` (stereo not shown): the “hERG current change (%, negative = inhibition) at 1uM” value is reported as 6.67%.
As to `CC(C)c1cccc(C(C)C)c1NC(=O)CCl`, the “hERG current change (%, negative = inhibition) at 1uM” value is listed as 16.1%.
Turning to `O=c1[nH]c(CSc2ncn[nH]2)nc2ccccc12`, the “hERG current change (%, negative = inhibition) at 1uM” value worked out at 8.32%.
For `COc1ccc(NC(=O)c2cc(S(=O)(=O)NCC3COc4ccccc4O3)ccc2F)cc1` (stereo not shown) the value was 7.86%.
For the molecule `CSc1ccc(C(=O)C2CCCN(C(=O)c3csc(C(C)=O)c3)C2)cc1` (stereo not shown), the “hERG current change (%, negative = inhibition) at 1uM” value was 6.91%.
In the case of `O=C(Cn1ncn2cccc2c1=O)N1CCCCC1`, the “hERG current change (%, negative = inhibition) at 1uM” value is 11.8%.
To `O=C(c1cc([N+](=O)[O-])cc([N+](=O)[O-])c1)N1CCCc2ccccc21` belongs 7.51%; to `O=C(NCc1cccc2ccccc12)Nc1ccccc1`, 4.1%.
To `C=CCc1cc(C)ccc1OCCOCCN1CCN(C)CC1.O=C(O)C(=O)O` belongs 11.3%.
For the molecule `CC(=O)NC(Cc1ccc(F)c(F)c1)C(=O)NC1CCN(C(=O)c2ccc(C)cc2)CC1` (stereo not shown), the “hERG current change (%, negative = inhibition) at 1uM” value is -4.57%.
As to `COc1cc(-c2nnc(COC(=O)C3c4ccccc4Oc4ccccc43)o2)cc(OC)c1OC`, the “hERG current change (%, negative = inhibition) at 1uM” value was found to be 6.01%.
To `Cc1ccc(C(c2c(C)[nH][nH]c2=O)c2c(C)[nH][nH]c2=O)cc1[N+](=O)[O-]` belongs -0.931%.
To `O=C(CSc1ncnc2sc3c(c12)CCC3)Nc1ccccc1C(=O)O` belongs 6.04%.
To `CCOC(=O)C1CCCN(C(=O)Nc2c(-c3ccccc3)noc2C)C1` (stereo not shown) belongs 10.7%; to `Cc1ccc2c(c1)c(C)c(C)n2CC(O)Cn1nc(C)cc1C` (stereo not shown), 6.09%; to `Cc1c(Cl)cccc1NC(=O)CC1Sc2ccccc2NC1=O` (stereo not shown), 17.2%.
